Assay results taken from the supplement of paper PMC9446081.
Out of some 39,000 compounds screened, about 220 (0.56%) showed activity. The list shows a part of the results.

tested on: Escherichia coli K-12 BW25113; experiment: relative growth (OD600 normalised to plate interquartile mean) (fraction); higher = less growth inhibition, active = 0.2 or less; settings: 50 µM; LB; incubation time: overnight (16-24 h)
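Note: static incubation at 37 °C against the wild-type strain, values averaged over two biological replicates.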

| Structure (SMILES) | relative growth |
| --- | --- |
| C[C@@H]1CCCCO[C@@H](CN(C)Cc2ccc(Cl)c(Cl)c2)[C@@H](C)CN([C@H](C)CO)C(=O)c2cc(NC(=O)C3CCCCC3)ccc2O1 | inactive: 0.987 |
| C[C@@H]1CCCCO[C@@H](CN(C)S(=O)(=O)c2ccc(F)cc2)[C@@H](C)CN([C@H](C)CO)C(=O)c2cc(NC(=O)NC3CCCCC3)ccc2O1 | inactive: 1 |
| Cn1cc(CO)cn1 | inactive: 1.01 |
| C[C@H]1CCCCO[C@@H](CN(C)S(=O)(=O)c2ccc(Cl)cc2)[C@@H](C)CN([C@@H](C)CO)C(=O)c2cc(NS(=O)(=O)c3ccc(F)cc3)ccc2O1 | inactive: 1.02 |
| CC(C)CC#Cc1ccc2c(c1)O[C@@H](CN(C)C(=O)c1cccnc1)[C@@H](C)CN([C@H](C)CO)S2(=O)=O | inactive: 0.971 |
| COc1ccc(NC(=O)N(C)C[C@@H]2OCCCC[C@H](C)Oc3ccc(NC(=O)CCC(F)(F)F)cc3C(=O)N([C@H](C)CO)C[C@@H]2C)cc1 | inactive: 1 |
| Cc1noc(C)c1S(=O)(=O)N(C)C[C@H]1Oc2ccc(NC(=O)Nc3ccc4c(c3)OCO4)cc2CC(=O)N([C@H](C)CO)C[C@@H]1C | inactive: 1.01 |
| Fc1cc2ccncc2cc1Cl | inactive: 0.966 |
| CCC(C)C(N)C(=O)O (stereo not drawn) | inactive: 0.923 |
| C[C@H]1CN([C@@H](C)CO)C(=O)c2cc(NC(=O)Cc3cn(C)c4ccccc34)ccc2O[C@H]1CN(C)CC1CCCCC1 | inactive: 0.988 |
| CN(C)CCCNC(=O)C[C@@H]1CC[C@@H](NS(=O)(=O)c2ccccc2)[C@H](CO)O1 | inactive: 0.999 |
| C[C@@H]1CCCCO[C@H](CN(C)Cc2ccc(Cl)c(Cl)c2)[C@@H](C)CN([C@@H](C)CO)C(=O)c2cc(NC(=O)CCC(F)(F)F)ccc2O1 | inactive: 0.914 |
| Cc1ccc(S(=O)(=O)N(C)C[C@@H]2Oc3c(NC(=O)c4ccncc4)cccc3C(=O)N([C@@H](C)CO)C[C@@H]2C)cc1 | inactive: 1 |
| CC(C)CC#Cc1ccc2c(c1)O[C@@H](CN(C)C(=O)c1cnccn1)[C@@H](C)CN([C@H](C)CO)S2(=O)=O | inactive: 0.965 |
| C[C@@H]1CN([C@H](C)CO)C(=O)Cc2cc(NC(=O)c3ccncc3)ccc2O[C@@H]1CN(C)S(=O)(=O)c1ccc(F)cc1 | inactive: 0.999 |
| COc1ccc([C@@H]([C@H](Cc2ccccc2)OC(C)=O)N2C[C@@H]3C(=NO[C@H]3[C@@H](OC(C)=O)c3ccccc3)[C@@H]2Cc2ccccc2)cc1 | inactive: 1.02 |
| CNC(=O)c1cccc(NC(=S)NC)c1 | inactive: 1 |
| C[C@@H]1CCCCO[C@@H](CN(C)Cc2ccccc2)[C@@H](C)CN([C@@H](C)CO)C(=O)c2cc(NC(=O)C3CCCCC3)ccc2O1 | inactive: 1.01 |
| Cc1ccc(S(=O)(=O)N(C)C[C@H]2OCCCC[C@H](C)Oc3ccc(NC(=O)Nc4ccc(F)cc4)cc3C(=O)N([C@H](C)CO)C[C@H]2C)cc1 | inactive: 1.01 |
| C[C@@H]1CN([C@H](C)CO)C(=O)CCCn2cc(nn2)CO[C@@H]1CN(C)C(=O)Nc1cccc2ccccc12 | inactive: 1.01 |

| Structure (SMILES) | relative growth |
| --- | --- |
| NCC[C@H]1CC[C@@H](NC(=O)NC2CCCCC2)[C@H](CO)O1 | inactive: 0.983 |
| COc1ccc(S(=O)(=O)Nc2cccc3c2O[C@H](CN(C)Cc2ccc(Oc4ccccc4)cc2)[C@@H](C)CN([C@H](C)CO)C3=O)cc1 | inactive: 1.04 |
| Cc1noc(C)c1NC(=O)N(C)C[C@H]1OCCCC[C@H](C)Oc2ccc(NC(=O)C3CCCCC3)cc2C(=O)N([C@H](C)CO)C[C@H]1C | inactive: 1 |
| CCCN(C)C[C@@H]1OCCCC[C@@H](C)Oc2ccc(NC(=O)Nc3ccc(OC)cc3)cc2C(=O)N([C@H](C)CO)C[C@@H]1C | inactive: 0.992 |
| CCS(=O)(=O)N1CCc2ccc(N)cc2C1 | inactive: 0.973 |
| C[C@@H]1CN([C@H](C)CO)C(=O)c2cc(NS(=O)(=O)c3ccc(Cl)cc3)ccc2O[C@@H](C)CCCCO[C@@H]1CN(C)S(=O)(=O)c1cccs1 | inactive: 1.04 |
| C[C@@H]1CN([C@@H](C)CO)C(=O)c2cc(NC(=O)Nc3ccc(C(F)(F)F)cc3)ccc2O[C@@H]1CN(C)Cc1ccncc1 | inactive: 0.981 |
| COc1ccc(NC(=O)Nc2ccc3c(c2)C(=O)N([C@@H](C)CO)C[C@@H](C)[C@@H](CN(C)S(=O)(=O)c2cccs2)OCCCC[C@H](C)O3)cc1 | inactive: 1.02 |
| NC(=O)NC1NC(=O)NC1=O (stereo not drawn) | inactive: 0.986 |
| C[C@@H]1CCCCO[C@H](CN(C)Cc2ccc(C(F)(F)F)cc2)[C@H](C)CN([C@@H](C)CO)C(=O)c2cc(NS(C)(=O)=O)ccc2O1 | inactive: 0.987 |
| O=C1c2ccccc2[C@](Cc2ccccc2I)(C(=O)NCC(F)(F)F)[C@H](c2ccc(CO)cc2)N1C1CCCCC1 | inactive: 1.02 |
| Cc1cc2n(n1)CCN(C(=O)[C@H]1CC[C@@H](N)C1)C2 | inactive: 0.935 |
| C[C@H](CO)N1C[C@H](C)[C@H](CN(C)S(=O)(=O)c2ccc(F)cc2)Oc2c(NS(C)(=O)=O)cccc2C1=O | inactive: 0.989 |
| COc1cccc(S(=O)(=O)N(C)C[C@@H]2Oc3cc(C#CCC(C)C)ccc3S(=O)(=O)N([C@H](C)CO)C[C@H]2C)c1 | inactive: 1.01 |
| Cc1ccc(S(=O)(=O)N(C)C[C@H]2Oc3ccc(NC(=O)CCN4CCOCC4)cc3C(=O)N([C@H](C)CO)C[C@H]2C)cc1 | inactive: 1.04 |
| C[C@@H]1CCCCO[C@@H](CN(C)C(=O)NC2CCCCC2)[C@@H](C)CN([C@@H](C)CO)C(=O)c2cc(NS(=O)(=O)c3ccc(Cl)cc3)ccc2O1 | inactive: 0.884 |
| C[C@@H]1CCCCO[C@H](CN(C)C(=O)CCC(F)(F)F)[C@H](C)CN([C@H](C)CO)C(=O)c2cc(NS(=O)(=O)c3ccc(Cl)cc3)ccc2O1 | inactive: 1.03 |
| CCNC(=O)[C@@H]1CCCN1C(=O)[C@H](CCCN=C(N)N)NC(=O)[C@H](CC(C)C)NC(=O)[C@@H](Cc1c[nH]c2ccccc12)NC(=O)[C@H](Cc1ccc(O)cc1)NC(=O)[C@H](CO)NC(=O)[C@H](Cc1c[nH]c2ccccc12)NC(=O)[C@H](Cc1c[nH]cn1)NC(=O)[C@@H]1CCC(=O)N1 | inactive: 1.02 |
| C[C@@H]1CCCCO[C@H](CN(C)S(=O)(=O)c2ccccc2)[C@H](C)CN([C@H](C)CO)C(=O)c2cc(NC(=O)Nc3cccc4ccccc34)ccc2O1 | inactive: 1.04 |
| CCCCC(=O)OC1(C(=O)CO)C(C)CC2C3CCC4=CC(=O)C=CC4(C)C3(F)C(O)CC21C (stereo not drawn) | inactive: 0.942 |

| Structure (SMILES) | relative growth |
| --- | --- |
| C[C@@H]1CN([C@@H](C)CO)S(=O)(=O)c2ccc(C#Cc3ccccc3)cc2O[C@H]1CN(C)S(=O)(=O)c1ccccc1F | inactive: 0.946 |
| CC(C)=CC[C@H]1O[C@]2(O)[C@@H]([C@H]3CC[C@@H]4[C@@]5(C)CC[C@H](O[C@@H]6O[C@H](CO[C@@H]7O[C@@H](C)[C@H](O)[C@@H](O)[C@H]7O)[C@@H](O)[C@H](O)[C@@H]6O)C(C)(C)[C@@H]5CC[C@@]4(C)[C@]3(C)[C@H]2O)[C@@]1(C)O[C@@H]1O[C@@H](C)[C@H](O)[C@@H](O)[C@H]1O | inactive: 0.997 |
| CO[C@H]1CN(C)C(=O)c2cc(NC(=O)Nc3ccccc3F)ccc2OC[C@@H](C)N(CCC(F)(F)F)C[C@@H]1C | inactive: 1.03 |
| c1ccc(CNC2CCCCC2)nc1 | inactive: 1.02 |
| C[C@H]1CN([C@@H](C)CO)C(=O)c2cccc(NC(=O)c3cnccn3)c2O[C@@H]1CN(C)Cc1ccc(C(=O)O)cc1 | inactive: 0.964 |
| C[C@H](CO)N1C[C@H](C)[C@H](CN(C)S(=O)(=O)c2ccc(F)cc2)OCCCC[C@H](C)Oc2ccc(NC(=O)c3ccccc3)cc2C1=O | inactive: 1.01 |
| CCCCCCCCCCCCCCCC(=O)C(F)(F)F | inactive: 0.965 |
| Cc1ccc(-c2cnc3c(c2)C(=O)N([C@H](C)CO)C[C@@H](C)[C@H](CN(C)C(=O)Cc2cccnc2)O3)cc1 | inactive: 1 |
| CC(C)NC(=O)N(C)C[C@@H]1OCCCC[C@H](C)Oc2ccc(NC(=O)Nc3ccc(F)cc3)cc2C(=O)N([C@@H](C)CO)C[C@H]1C | inactive: 1.02 |
| Cn1c(=O)c2c(ncn2CC(=O)N2CCN(c3ccccc3F)CC2)n(C)c1=O | inactive: 0.99 |
| O=C1CCc2ccc(OCCCCN3CCN(c4cccc(Cl)c4Cl)CC3)cc2N1 | inactive: 1.01 |
| C[C@@H]1CN([C@@H](C)CO)C(=O)Cc2cc(NC(=O)C3CC3)ccc2O[C@H]1CN(C)S(=O)(=O)c1ccc(Cl)cc1 | inactive: 0.967 |
| Cc1ccc(S(=O)(=O)N(C)C[C@H]2Oc3c(NS(=O)(=O)c4cccs4)cccc3C(=O)N([C@@H](C)CO)C[C@@H]2C)cc1 | inactive: 0.893 |
| Cc1ccc(S(=O)(=O)N(C)C[C@@H]2Oc3ccc(NC(=O)Nc4ccc(C(F)(F)F)cc4)cc3C(=O)N([C@@H](C)CO)C[C@H]2C)cc1 | inactive: 0.993 |
| C[C@H]1CN([C@@H](C)CO)C(=O)c2cccc(NC(=O)C3CCOCC3)c2O[C@H]1CN(C)C(=O)NC1CCCCC1 | inactive: 1.02 |
| C[C@@H]1CN([C@@H](C)CO)C(=O)Cc2cc(NC(=O)Cn3cnnn3)ccc2O[C@H]1CN(C)Cc1ccc(-c2ccccc2)cc1 | inactive: 0.984 |
| C[C@@H]1CN([C@@H](C)CO)C(=O)c2cc(NC(=O)Cn3cnnn3)ccc2O[C@H]1CN(C)Cc1ccncc1 | inactive: 1.01 |
| COc1ccc(NC(=O)N(C)C[C@@H]2Oc3ccc(NC(=O)CCN4CCOCC4)cc3C(=O)N([C@H](C)CO)C[C@H]2C)cc1 | inactive: 0.993 |
